# From the supplement of paper PMC8728848
# This is one part of the list.
# B1: Surfactant Protein D (Human); Neck + Carbohydrate Recognition Domain (NCRD) (Homo sapiens) (protein)
# chain: MLLFLLSALVLLTQPLGYLEAEMKTYSHRTMPSACTLVMCSSVESGLPGRDRDGREGPRGEKGDPGLPGAAGQAGMPGQAGPVGPKGDNGSVGEPGPKGDTGPSGPPGPPGVPGPAGREGALGKQGNIGPQGKPGPKGEAGPKGEVGAPGMQGSAGARGLAGPKGERGVPGERGVPGNTGAAGSAGAMGPQGSPGARGPPGLKGDKGIPGDKGAKGESGLPDVASLRQQVEALQGQVQHLQAAFSQYKKVELFPNGQSVGEKIFKTAQFVKPFTEAQLLCTQAGGQLASPRSAAENAALQQLVVAKNEAAFLSMTDSKTEGKFTYPTGESLVYSNWAPGEPNDDGGSEDCVEIFTNGKWNDRACGEKRLVVCEA
# Assays:
# Experiment in all cases: glycan array binding signal (z-score within array); higher = stronger binding
# Conditions in all cases: glycan notation: IUPAC condensed, linker removed; mutation: F355A
# [1] = biological target: Fuc(a1-2)[GalNAc(a1-3)]Gal(b1-4)[Fuc(a1-3)]GlcNAc
# Outline: (§1)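 Columns mapping to the same glycan were averaged after glycan names were converted to IUPAC-condensed notation. The data come from 3228 arrays in the Consortium for Functional Glycomics database, limited to those with an available protein sequence. Binding is reported as a within-array Z-score averaged across arrays of one protein sequence and across linkers.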
# [2] = biological target: Fuc(a1-2)[GalNAc(a1-4)]Gal(b1-4)GlcNAc
# Outline: as §1
# [3] = biological target: Fuc(a1-2)[GalNAc(b1-3)]Gal
# Outline: as §1
# Fuc(a1-3)GlcNAc = biological target: Fuc(a1-3)GlcNAc
# Outline: as §1
# [4] = biological target: Fuc(a1-3)[Gal(b1-4)]Glc6S
# Outline: as §1
# [5] = biological target: Fuc(a1-3)[Gal(b1-4)]GlcNAc
# Outline: as §1
# [6] = biological target: Fuc(a1-3)[Gal(b1-4)]GlcNAc(b1-2)Man(a1-3)[Fuc(a1-3)[Gal(b1-4)]GlcNAc(b1-2)Man(a1-6)]Man(b1-4)GlcNAc(b1-4)GlcNAc
# Outline: as §1
# [7] = biological target: Fuc(a1-3)[Gal(b1-4)]GlcNAc(b1-2)Man(a1-6)[Gal(b1-4)GlcNAc(b1-2)Man(a1-3)]Man(b1-4)GlcNAc(b1-4)GlcNAc
# Outline: as §1
# [8] = biological target: Fuc(a1-3)[Gal(b1-4)]GlcNAc(b1-3)Gal(b1-3)[Fuc(a1-4)]GlcNAc
# Outline: as §1
# [9] = biological target: Fuc(a1-3)[Gal(b1-4)]GlcNAc(b1-4)Gal(b1-4)[Fuc(a1-3)]GlcNAc
# Outline: as §1
# [10] = biological target: Fuc(a1-3)[Gal(b1-4)]GlcNAc(b1-4)Gal(b1-4)[Fuc(a1-3)]GlcNAc(b1-4)Gal(b1-4)[Fuc(a1-3)]GlcNAc
# Outline: as §1
# [11] = biological target: Fuc(a1-3)[Gal(b1-4)]GlcNAc6S
# Outline: as §1
# [12] = biological target: Fuc(a1-3)[Gal3S(b1-4)]Glc6S
# Outline: as §1
# [13] = biological target: Fuc(a1-3)[Gal3S(b1-4)]GlcNAc
# Outline: as §1
# [14] = biological target: Fuc(a1-3)[Gal3S(b1-4)]GlcNAc6S
# Outline: as §1
# [15] = biological target: Fuc(a1-3)[GalNAc(b1-4)]GlcNAc
# Outline: as §1
# Fuc(a1-4)GlcNAc = biological target: Fuc(a1-4)GlcNAc
# Outline: as §1
# Fuc(b1-3)GlcNAc = biological target: Fuc(b1-3)GlcNAc
# Outline: as §1
# Gal(a1-2)Gal = biological target: Gal(a1-2)Gal
# Outline: as §1
# Gal(a1-3)Gal = biological target: Gal(a1-3)Gal
# Outline: as §1
# Gal(a1-3)Gal(b1-3)GlcNAc = biological target: Gal(a1-3)Gal(b1-3)GlcNAc
# Outline: as §1
# Gal(a1-3)Gal(b1-4)Glc = biological target: Gal(a1-3)Gal(b1-4)Glc
# Outline: as §1
# Gal(a1-3)Gal(b1-4)GlcNAc = biological target: Gal(a1-3)Gal(b1-4)GlcNAc
# Outline: as §1
# [16] = biological target: Gal(a1-3)Gal(b1-4)[Fuc(a1-3)]GlcNAc
# Outline: as §1
# Gal(a1-3)GalNAc = biological target: Gal(a1-3)GalNAc
# Outline: as §1
# [17] = biological target: Gal(a1-3)[Gal(a1-4)]Gal(b1-4)GlcNAc
# Outline: as §1
# Gal(a1-4)Gal(b1-4)Glc = biological target: Gal(a1-4)Gal(b1-4)Glc
# Outline: as §1
# Gal(a1-4)Gal(b1-4)GlcNAc = biological target: Gal(a1-4)Gal(b1-4)GlcNAc
# Outline: as §1
# Gal(a1-4)GlcNAc = biological target: Gal(a1-4)GlcNAc
# Outline: as §1
# Gal(a1-6)Glc = biological target: Gal(a1-6)Glc
# Outline: as §1
# Gal(b1-2)Gal = biological target: Gal(b1-2)Gal
# Outline: as §1
# Gal(b1-3)Gal = biological target: Gal(b1-3)Gal
# Outline: as §1
# Gal(b1-3)Gal(b1-4)GlcNAc = biological target: Gal(b1-3)Gal(b1-4)GlcNAc
# Outline: as §1
# Gal(b1-3)GalNAc = biological target: Gal(b1-3)GalNAc
# Outline: as §1
# [18] = biological target: Gal(b1-3)GalNAc(b1-3)Gal(a1-4)Gal(b1-4)Glc
# Outline: as §1
# [19] = biological target: Gal(b1-3)GalNAc(b1-4)Gal(b1-4)Glc
# Outline: as §1
# [20] = biological target: Gal(b1-3)GalNAc(b1-4)[Neu5Ac(a2-3)]Gal(b1-4)Glc
# Outline: as §1
binder,measurement,setting,value
B1,glycan array binding signal (z-score),[1],-0.163
same,glycan array binding signal (z-score),[2],-0.084
same,glycan array binding signal (z-score),[3],-0.13
same,glycan array binding signal (z-score),Fuc(a1-3)GlcNAc,-0.121
same,glycan array binding signal (z-score),[4],-0.137
same,glycan array binding signal (z-score),[5],-0.106
same,glycan array binding signal (z-score),[6],-0.172
same,glycan array binding signal (z-score),[7],-0.143
same,glycan array binding signal (z-score),[8],-0.121
same,glycan array binding signal (z-score),[9],-0.04
same,glycan array binding signal (z-score),[10],-0.16
same,glycan array binding signal (z-score),[11],-0.1
same,glycan array binding signal (z-score),[12],-0.058
same,glycan array binding signal (z-score),[13],-0.132
same,glycan array binding signal (z-score),[14],-0.08
same,glycan array binding signal (z-score),[15],-0.095
same,glycan array binding signal (z-score),Fuc(a1-4)GlcNAc,-0.143
same,glycan array binding signal (z-score),Fuc(b1-3)GlcNAc,-0.163
same,glycan array binding signal (z-score),Gal(a1-2)Gal,-0.16
same,glycan array binding signal (z-score),Gal(a1-3)Gal,-0.149
same,glycan array binding signal (z-score),Gal(a1-3)Gal(b1-3)GlcNAc,-0.144
same,glycan array binding signal (z-score),Gal(a1-3)Gal(b1-4)Glc,-0.099
same,glycan array binding signal (z-score),Gal(a1-3)Gal(b1-4)GlcNAc,-0.139
same,glycan array binding signal (z-score),[16],-0.137
same,glycan array binding signal (z-score),Gal(a1-3)GalNAc,-0.129
same,glycan array binding signal (z-score),[17],-0.151
same,glycan array binding signal (z-score),Gal(a1-4)Gal(b1-4)Glc,-0.114
same,glycan array binding signal (z-score),Gal(a1-4)Gal(b1-4)GlcNAc,-0.094
same,glycan array binding signal (z-score),Gal(a1-4)GlcNAc,-0.123
same,glycan array binding signal (z-score),Gal(a1-6)Glc,-0.152
same,glycan array binding signal (z-score),Gal(b1-2)Gal,-0.153
same,glycan array binding signal (z-score),Gal(b1-3)Gal,-0.142
same,glycan array binding signal (z-score),Gal(b1-3)Gal(b1-4)GlcNAc,-0.102
same,glycan array binding signal (z-score),Gal(b1-3)GalNAc,-0.131
same,glycan array binding signal (z-score),[18],-0.144
same,glycan array binding signal (z-score),[19],-0.123
same,glycan array binding signal (z-score),[20],-0.145
